# In all, about 310,000 compounds went through this assay and about 14,000 (4.5%) showed an effect of 50% or more. Effects have a minus sign here. Some of the results follow.
# Target: human ether-à-go-go-related gene (hERG) potassium channel (human, UniProt Q12809)
# Assay: primary screen, population patch clamp on CHO cells stably expressing hERG
# 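Further: peak tail current of the secondary pulse compared with the same well before compound.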
# human ether-à-go-go-related gene (hERG) potassium channel, sequence (Q12809 whole entry, looked up): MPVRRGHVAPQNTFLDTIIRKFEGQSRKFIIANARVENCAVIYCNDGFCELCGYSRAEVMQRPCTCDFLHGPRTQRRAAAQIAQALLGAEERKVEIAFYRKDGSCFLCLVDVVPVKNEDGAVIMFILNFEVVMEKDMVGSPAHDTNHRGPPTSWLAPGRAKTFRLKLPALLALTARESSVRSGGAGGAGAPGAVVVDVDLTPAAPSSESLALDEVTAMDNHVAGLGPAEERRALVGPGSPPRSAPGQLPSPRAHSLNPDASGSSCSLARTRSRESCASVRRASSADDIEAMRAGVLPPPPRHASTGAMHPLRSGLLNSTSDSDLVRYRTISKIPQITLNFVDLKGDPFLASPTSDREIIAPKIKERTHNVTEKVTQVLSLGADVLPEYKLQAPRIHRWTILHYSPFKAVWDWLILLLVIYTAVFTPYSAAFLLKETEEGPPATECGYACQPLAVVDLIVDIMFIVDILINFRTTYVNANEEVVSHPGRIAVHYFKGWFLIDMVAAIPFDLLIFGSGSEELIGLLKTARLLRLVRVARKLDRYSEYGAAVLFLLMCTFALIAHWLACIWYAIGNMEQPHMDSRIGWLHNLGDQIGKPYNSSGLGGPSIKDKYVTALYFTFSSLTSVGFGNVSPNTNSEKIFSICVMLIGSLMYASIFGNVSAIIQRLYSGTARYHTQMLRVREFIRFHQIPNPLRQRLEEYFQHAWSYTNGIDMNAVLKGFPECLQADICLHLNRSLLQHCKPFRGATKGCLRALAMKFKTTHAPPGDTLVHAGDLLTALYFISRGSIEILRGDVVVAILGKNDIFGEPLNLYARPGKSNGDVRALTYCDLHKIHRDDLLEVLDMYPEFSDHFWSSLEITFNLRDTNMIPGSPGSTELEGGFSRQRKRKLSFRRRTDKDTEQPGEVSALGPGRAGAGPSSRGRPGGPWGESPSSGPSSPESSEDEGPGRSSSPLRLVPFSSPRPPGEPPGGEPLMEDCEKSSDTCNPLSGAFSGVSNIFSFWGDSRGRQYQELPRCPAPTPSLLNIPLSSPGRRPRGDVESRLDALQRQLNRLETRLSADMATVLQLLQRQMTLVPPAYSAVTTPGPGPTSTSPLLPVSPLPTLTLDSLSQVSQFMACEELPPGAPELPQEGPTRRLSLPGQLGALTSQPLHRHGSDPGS
row,Structure (SMILES),"hERG current change (%, negative = inhibition) at 10uM"
1,Cc1ccc(OCCCCCCN2CCNCC2)c(Br)c1.O=C(O)C(=O)O,-30.3%
2,Brc1ccc(C2=CSC3=NCCN23)cc1,-29.5%
3,COc1ccc2oc(C(=O)OCC(=O)N3CCC(C)CC3)c(C)c2c1,-0.112%
4,CCOC(=O)c1ccc2nc(NC(=O)c3ccco3)sc2c1,9.53%
5,CN1CCN(CC(=O)C23CC4CC(CC(C4)C2)C3)CC1.Cl,-5.5%
6,Cc1[nH]c2ccccc2c1-c1nc2ccccc2[nH]c1=O,16.6%
7,COCCCn1c(=O)c2sccc2n2c(CCCC(=O)NCC3CCCO3)nnc12 (centres unmarked),15.7%
8,CN(Cc1ccccc1)C(=O)c1ncn(Cc2ccccc2)c1C(=O)N(C)Cc1ccccc1,-38.9%
9,COc1ccc(N2C(=NC(=O)CC3CCCCC3)SC3CS(=O)(=O)CC32)cc1 (centres unmarked),19.5%
10,Cn1ncc(Cl)c1C(=O)N1CCN(C23CC4CC(CC(C4)C2)C3)CC1,-28.9%
11,COC(=O)[C@H](c1ccccc1Cl)N1CCc2sccc2C1,8%
12,O=C(N/N=C/c1ccco1)C1COc2ccccc2O1 (centres unmarked),-8.58%
13,Cc1nc2ccc(S(=O)(=O)NCC(=O)N(C)Cc3ccccc3)cc2s1,17.8%
14,Cc1ccc(N=Cc2ccc[nH]2)c(O)c1,8.49%
15,CCOc1ccc(CNC(=O)CCS(=O)(=O)c2ccc3c(c2)oc(=O)n3C)cc1,18.4%
16,CCOc1ccc(N(CC(=O)NC2CCCCCC2)S(=O)(=O)c2ccccc2)cc1,-5.41%
17,CCc1nc2sc3c(=O)n(N)cnc3c2c2c1COC(C)(C)C2,5.96%
18,CCCS(=O)(=O)c1c(S(=O)(=O)CCC)c2cc(-c3ccncc3)ccn2c1C(=O)OC,-50.2%
19,CCn1c(SCC(=O)NNC(=O)c2ccc(C)cc2)nnc1-c1ccncc1,-0.879%
20,COc1ccc(OC)c(-c2cc(C(=O)NCCN3CCOCC3)no2)c1,-5%
21,O=c1c2ccccc2oc2nc3n(c(=O)c12)CCCS3,-8.62%
22,O=C(CSc1cn(CCNC(=O)c2cccs2)c2ccccc12)NC1CCCCC1,-18.4%

row,Structure (SMILES),"hERG current change (%, negative = inhibition) at 10uM"
1,Cc1ccc(S(=O)(=O)N2CCN(C(=O)CN3C(=O)CNC3=O)CC2)cc1,2.55%
2,O=C1/C(=C/c2cccnc2)SC(=S)N1N1CCOCC1,5.68%
3,O=C(Nc1ccccc1)NC1CCN(Cc2ccccc2)CC1,-39.4%
4,CC(=O)c1ccc(N2CCN(c3ncccn3)CC2)c([N+](=O)[O-])c1,-32.5%
5,O=C(C1CCCN(c2ncccn2)C1)N1CCc2ccccc21 (centres unmarked),-9.4%
6,Cc1cccc(NS(=O)(=O)c2ccc(C)c(C(=O)NCc3ccncc3)c2)c1,-13.6%
7,CCn1c(SCc2nc3sc(C(=O)O)c(C)c3c(=O)[nH]2)nnc1-c1ccc(Cl)cc1,6.23%
8,Cn1c(SCc2ccc([N+](=O)[O-])cc2)nnc1-c1ccncc1,-52%
9,O=C(Cn1cnc2cc([N+](=O)[O-])ccc2c1=O)Nc1ccc(N2CCOCC2)cc1,0.511%
10,CC(C)NS(=O)(=O)c1ccc(CCC(=O)Nc2cc(Cl)ccc2Oc2ccccc2)cc1,3.35%
11,COc1cc(CC(NC(C)=O)C(=O)NC2CCN(C(=O)c3cc(OC)c(OC)c(OC)c3)CC2)cc(OC)c1 (centres unmarked),-7.91%
12,Cc1occc(=O)c1OC(=O)Nc1ccc(Cl)c(Cl)c1,12.7%
13,COC(=O)C[C@H]1c2cc(C(F)(F)F)ccc2S(=O)(=O)N1C1CCCCC1,-4.46%
14,O=C(NS(=O)(=O)c1ccc(Cl)s1)c1ccccc1,20.1%
15,CCOc1ccc(C(C)=O)cc1COC(=O)c1ccc2c(c1)NC(=O)CS2,-7.29%
16,O=C(CCCN1C(=O)/C(=C/c2ccccc2Cl)SC1=S)Nc1ccccn1,2.72%
17,COC(=O)Nc1ccc(S(=O)(=O)N2CCCCCC2)cc1,9.82%
18,Cc1cc(C)nc(N=Nc2c(O)n(Cc3ccc(Cl)cc3)c3ccccc23)n1,10.7%
19,O=C1NC(c2ccccc2)(C(F)(F)F)C(=O)N1Cc1cccnc1 (centres unmarked),-1.67%
20,NC(=O)CC(NC(=O)Cc1ccc(Br)cc1)c1ccc(NC2CC3CCC2C3)c([N+](=O)[O-])c1 (centres unmarked),1.31%
21,COc1c(Cl)cc(Cl)cc1CNc1ccc(S(N)(=O)=O)cc1,8.56%
22,CCn1c(SCC(=O)N/N=C/c2c[nH]c3ccccc23)nnc1-c1ccc(C(C)(C)C)cc1,2.01%
